Experimental data: the RNAGym collection of RNA variant scans (doi:10.1093/nar/gkz1192)
Read counts are not given, so values of variants with three or more changes are uncertain.

B1: CPEB3 Ribozyme (parent)
chain: UAACAGGGGGCCACAGCAGAAGCGUUCACGUCGCAGCCCCUGUCAGAUUCUGGUGAAUCUGCGAAUUCUGCUGUAUAUCUC

Variants of: B1
Test: self-cleavage, relative activity (ratio to wild type); higher = more cleavage; in vitro, sequencing
Procedure, shortened: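 Libraries of CPEB3 self-cleaving ribozyme mutants came from rounds of error-prone PCR and carried barcodes, which DNA sequencing matched to variants. In vitro transcription used T7 RNA polymerase at 37°C for 5 hours, with a further 15 min in DNase I before EDTA stopped the reaction; the ribozymes cleaved during both steps. The RNA was reverse transcribed with template switching and sequenced on Illumina. Relative activity is the cleaved/total read fraction of a variant divided by that of the unmutated ribozyme, averaged over three batches with at least 5 reads.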

Variant	self-cleavage
G30A G55A U60C	0.11
G30A U31C U41C U49A	0.08
G30A U31C U72A	0.18
G30A U41A A45G U78A	0.04
G30A U48C G55A U67C	0.04
G30A U49C U72C	0.17
G30A U54A A64G U66A	0.14
G30A U54A U67C	0.09
G30A U54C A64G U66A U69A U78C	0.07
G30A U66C U69C A75U	0.09
G30A U69C U74A	0.15
G30A U72G A77G	0.17
G30C A57U U78C	0.07
G30C G36A U41C U60C A64G	0.14
G30C G36A U48A	0.07
G30C G52C A65G U76C	0.13
G30C U31C A45U U69A U76A	0.23
G30C U31G A47U	0.08
G30C U41C U43A A56G A64G	0.22
G30U A35U C38U U51A U58C U69C U80A	0.05
G30U A45G U48C U54A	0.06
G30U A45U A56U	0.09
G30U G52C U72G	0.05
G30U G63C U76A U80C	0.11

Variant	self-cleavage
G30U U31C A45G	0.13
G30U U31G U43C	0.12
G30U U41C U72C	0.1
G30U U41G U76A	0.11
G30U U43G U58C A77U U80C	0.08
G30U U48C G53A A64U	0.21
G30U U54C G70A U76C	0.06
G30U U67A U78C	0.06
U31A A35C U43A U54C U69C	0.21
U31A A35G A45U U78C	0.92
U31A A35G G42C U49A	0.08
U31A A35G U41G A45G U58C	0.08
U31A A35G U54C U58C U60A	0.2
U31A A35G U74C	1.28
U31A A35U U43C U80A	0.1
U31A A47G U54G U69A U72C A77U	0.14
U31A A56G C71G	0.09
U31A A56G U66C	0.26
U31A A56G U72A U78A	0.4
U31A A56U C59A U66C	0.08
U31A A57G A64U	0.1
U31A A64G A65G U74C	0.13
U31A A64G C68A U74A	0.12
U31A A64U U69A	0.17

Variant	self-cleavage
U31A C32U U51C	0.22
U31A C34G C44U U69C	0.26
U31A C34U U41A U51A	0.33
U31A C38A U69G	0.09
U31A C38U U58C U69C	0.07
U31A C40U A47U G73U	0.67
U31A C50U A65G	0.16
U31A G33A A56G	0.08
U31A G33A U41C U49C U67A	0.08
U31A G33A U43A	0.15
U31A G33A U48A	0.07
U31A G33U U54C	0.17
U31A G33U U60C U67C U80A	0.06
U31A G53C U69C	0.22
U31A U41A A45G U48C A56U	0.14
U31A U41A U54C U72C	0.13
U31A U41C A47G	0.24
U31A U41C A56G	0.35
U31A U41C U43C G53A	0.3
U31A U41C U48C	0.19
U31A U41C U60A A65U U66G U69C	0.15
U31A U41C U69C C79U	0.25
U31A U41G A56G U60C A64G U76C	0.03
U31A U41G U51C U76A A77U	0.08

Variant	self-cleavage
U31A U41G U54C	0.23
U31A U43A U48C U49C	0.19
U31A U43C U48C U51A	0.09
U31A U43C U60C U72G	0.15
U31A U43C U72A U78A	0.11
U31A U43C U74C	0.5
U31A U48C U54G A56C U66A U72A	0.09
U31A U49C A64G	0.14
U31A U49C C62A A64U	0.14
U31A U49C U72G	0.49
U31A U51A U72C U80A	0.51
U31A U51C A57G	0.4
U31A U54A U78C	0.44
U31A U60C U74C	0.44
U31A U66C U78C U80C	0.1
U31A U69A U80C	0.41
U31C A35C C59A	0.1
U31C A35G C37A U58C C62U U80C	0.08
U31C A35G G53U A57G	1.21
U31C A35G U41A U49A U67C U74G	0.06
U31C A35G U41C U54C A64G	0.42
U31C A35G U48A U54A U76C	1.02
U31C A35G U48C U49C U54C U72A U74A	0.17
U31C A35G U49C	0.35

Variant	self-cleavage
U31C A35G U49C U60C U72C	0.09
U31C A35G U60C U69A C79A	0.46
U31C A35U U43C U49C	0.08
U31C A35U U48C	0.39
U31C A35U U60C U69A	0.14
U31C A35U U76A U80C	0.36
U31C A45C U78C	0.19
U31C A45G G52A A56U	0.27
U31C A45G U66A	0.13
U31C A45U U66A	0.18
U31C A47G A56G G73C U76C	1.21
U31C A47G C50U U58C U76A	0.95
U31C A47G C50U U60C U76C	0.11
U31C A47G U49C A57G A77C	0.05
U31C A47G U49G U72C U78C	0.1
U31C A56G U69A	0.25
U31C A56U U58G	0.1
U31C A57C U58A	0.11
U31C A57U U72A	0.11
U31C A64G U69C	0.27
U31C A64G U74A	0.81
U31C A65G U67C	0.35
U31C A65G U74A	0.57
U31C C32A A47G A65G U69C U74A U78C	0.07

Variant	self-cleavage
U31C C32G C38U U69C	0.05
U31C C32U A35U U41C U66C U76G	0.09
U31C C32U C38G	0.11
U31C C32U U67C	0.31
U31C C34A A45U U60C U66C	0.16
U31C C37A A77G U78A	0.19
U31C C37A U48C U60G U74A	0.08
U31C C37U U43C A45G U51C U80C	0.07
U31C C38U C44U A75G A77U	0.06
U31C C39G U51C U69A C71G	0.07
U31C C39U U78C	0.37
U31C C40A U41C C62U U67C	0.07
U31C C40A U51C	0.09
U31C C40A U60A	0.19
U31C C40U U69G U76C	0.13
U31C C68A U78C	0.42
U31C C71G A75U	0.57
U31C G33A A35G U58A C62U U78G	0.13
U31C G33A U41A C71A	0.11
U31C G33A U48C A56G	0.2
U31C G33A U72C	0.15
U31C G53U A64U	0.28
U31C U41A A56G A64G U69G	0.17
U31C U41A U49C U54C U67C	0.06

Variant	self-cleavage
U31C U41A U54C U78C	0.19
U31C U41C A56U U74A	1.04
U31C U41G A64U	0.23
U31C U41G U49C U51A C59G	0.16
U31C U43A A57C U60C A64G	0.11
U31C U43A U51C U58C	0.31
U31C U43C C44G A47G A75G	0
U31C U43C G46A A47G U49C U78C	0.11
U31C U43C G63U U66C U69C	0.08
U31C U43C U49C U80C	0.09
U31C U43C U54C	0.23
U31C U43C U58C C81U	0.11
U31C U43C U66C A75U	0.08
U31C U43C U69C U76G	0.1
U31C U43G U54C U66C U78C	0.28
U31C U48C A56G U67C	0.14
U31C U48C C68U	0.65
U31C U48C U69A	0.18
U31C U49C A56G A57U A77G	0.19
U31C U49C A57G U66C	0.34
U31C U49C G70A U72C	0.36
U31C U49C U58C	0.14
U31C U49G A57G U72A	0.25
